Laboratory results taken from PubChem BioAssay AID1347434 (National Center for Advancing Translational Sciences (NCATS), 2020).
About 30 (2%) of roughly 1,200 compounds were called active. Roughly 23% stayed inconclusive and do not appear here. Calls come from the whole dose curve; as a rule, active = well fitted inhibition curve with a large enough effect; inconclusive = small, poorly fitted or top-dose-only effect; inactive = flat fitted curve, though single readings scatter. The list shows a part of the results.

target: Single-stranded DNA cytosine deaminase (Homo sapiens) (UniProt Q9GZX7); test: Confirmatory qHTS assay for inhibitors of Activation Induced Cytidine Deaminase (AID): AID signals; conditions: recombinant AID, FRET deamination/UDG coupled fluorescence, 4 h; series mostly up to 115 µM; activity, negative = inhibition: at the top concentration
Procedure, shortened: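 Read 1 (AID) was measured at 540 ex/590 em after a 30 min NaOH step. The reaction was AID (1 uM, 4/3x stock) with UDG, compound at final 7.32 nM - 114 uM for 10 min, then DJC20/DJC23 substrate for 4 hr at room temperature. A UDG read at 560/665 serves as counterscreen.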
% is set by controls: 0 for no effect and ±100 for the full control effect.

Sequence of UniProt Q9GZX7 (Q9GZX7 whole entry, looked up): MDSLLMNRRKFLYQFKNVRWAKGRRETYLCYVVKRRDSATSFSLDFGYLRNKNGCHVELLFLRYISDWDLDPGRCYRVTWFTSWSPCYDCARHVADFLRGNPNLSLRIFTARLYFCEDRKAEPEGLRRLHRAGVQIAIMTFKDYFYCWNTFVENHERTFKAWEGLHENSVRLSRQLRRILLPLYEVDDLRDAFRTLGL

activity, negative = inhibition, inactive:
COc1ccccc1Nc1nn2c(=O)c3ccc(C(=O)N4CCC(C)CC4)cc3nc2s1 -12.2%, CCN(C(=O)CCc1nc(-c2ccc(C)cc2)no1)c1cc(C)ccc1C -18.2%, CCCCOc1ccc(C2=NC(c3ccncc3)=Nc3ccc(Br)cc3N2)cc1 2.1%, CCn1cc(S(=O)(=O)c2ccc(OC)cc2)c(=O)c2cc(F)c(N3CCC(C)CC3)cc21 -25.9%, Cc1ccc(CN(Cc2ccco2)C(=O)COc2c(C)cc(C)cc2C)cc1 -9.83%, Cc1ccccc1CN1CCC(CNc2ncnc3onc(-c4ccc(Cl)cc4)c23)CC1 2.45%, CCCn1cc(S(=O)(=O)c2ccccc2)c(=O)c2cc(F)c(N3CCCCC3)cc21 -12.4%, Cc1ccc(Cc2c(C)nc3nc(SCC(=O)NC(C)c4ccccc4)nn3c2C)cc1 (centres undefined) -6.04%, COc1ccccc1NC(=O)CSc1nnc2c3ccccc3n(C(C)C)c2n1 -8.08%, COc1ccccc1C(=O)NCCc1csc(-c2ccc(C(F)(F)F)cc2)n1 -9.97%, CN(C)S(=O)(=O)N(CC(=O)NCCSc1ccc(Cl)cc1)c1ccccc1 -5.54%, Cn1c2ccccc2c2c(C(=O)N3CCN(c4cccc(C(F)(F)F)c4)CC3)cn(C3CCCCC3)c(=O)c21 -7.51%, COc1cc(NC(=O)Cn2cc(S(=O)(=O)N3CCC(C)CC3)c3ccccc3c2=O)cc(OC)c1OC -10%, Cc1ccc(C(=O)c2cn(CC(=O)Nc3ccc4c(c3)OCCO4)c3nc(C)ccc3c2=O)cc1 -25.8%, CCc1ccc(OCC2c3cc(OC)c(OC)cc3CCN2C(=O)Cc2ccc(OC)c(OC)c2)cc1 (centres undefined) -16.6%, Cc1cccc(N2CCN(C(=O)c3c4c(nc5ccccc35)C(=O)N(C3CCCCC3)C4)CC2)c1C -26.2%, Cc1ccc(-n2ncc(C(=O)N3CCN(Cc4ccccc4)CC3)c2C2CCN(C(=O)OC(C)(C)C)CC2)c(C)c1 -9.26%, COCCc1nn2c(=O)cc(COC(=O)c3ccc(C(C)(C)C)cc3)nc2s1 -10.1%, O=C(c1ccc2c(Cl)c3c(nc2c1)CCCC3)N1CCN(c2cccc(Cl)c2)CC1 -13%, COc1ccc(CCNC(=O)CS(=O)Cc2nc(-c3ccc(C)cc3)oc2C)c(OC)c1 (centres undefined) 4.89%, CCOC(=O)c1cc(-c2ccc(C)cc2)n(CCC(=O)Nc2ccc(OC)c(OC)c2)c1C -0.56%, Cc1cccc(NC(=O)CCn2nc(-c3ccccc3)c3ccccc3c2=O)c1 -19.9%, CCc1nn2c(=O)cc(COC(=O)C(c3ccccc3)c3ccccc3)nc2s1 -2.37%, Fc1ccc(CNc2nc(-c3ccccc3)cc(C(F)(F)F)n2)cc1 -14.2%, Cc1ccc(Cl)cc1N1CCN(C(=O)c2ccc(C)c(-n3c(C)nc4cccnc43)c2)CC1 -6.99%, CCc1nc2ccc(C(=O)N3CCN(c4ccc(Cl)cc4)CC3)cc2nc1CC -22.4%, Cc1ccccc1CN1C(=O)c2ccccc2Sc2ccc(C(=O)O)cc21 -11.3%, CCOC(=O)c1ccc(NC(=O)CC2Nc3cccc4cccc(c34)NC2=O)cc1 (centres undefined) -7.25%, CCOc1ccccc1NC(=O)Nc1ccc2nc(N3CCN(C)CC3)cc(C)c2c1 -0.364%, CCOc1ccc(Nc2sc(C(=O)c3ccc(F)cc3)c(N)c2S(=O)(=O)c2ccc(C)cc2)cc1 11.9%, Cc1cccc(NC(=O)CC2Nc3cccc4cccc(c34)NC2=O)c1 (centres undefined) -9.51%, Cc1nc2nc(SCC(=O)N(C)Cc3ccccc3)nn2c(C)c1Cc1ccccc1Cl -17.7%, COc1ccc2c(c1)Cc1sc(NC(=O)c3ccccc3C)nc1-2 60.4%, CCCCOc1ccc(C(=O)NCC(c2ccc(Cl)cc2)N2CCOCC2)cc1 (centres undefined) -2.89%, CCN1CCN(c2cc(C)c3cc(NC(=O)/C=C/c4cccc(Cl)c4)ccc3n2)CC1 -16.3%, COc1ccc(CCNC(=O)c2nn(C)c3c2CSc2ccccc2-3)cc1OC -13%, COc1cccc(C2CC(=O)N3CN(C4CCCCC4)CSC3=C2C#N)c1 (centres undefined) 3.35%, COc1cccc(-n2c(SCC(=O)Nc3cccc(C)c3)nc3c([nH]c4ccccc43)c2=O)c1 -10.8%, CCC1CCCCN1CCCNC(=O)c1cn(CC)c2ccc(S(=O)(=O)N(C)C3CCCCC3)cc2c1=O (centres undefined) -18%, O=C(CN(c1ccc(Cl)c(C(F)(F)F)c1)S(=O)(=O)c1ccccc1)Nc1cccnc1 1.91%, CCOC(=O)c1cnc2ccc(C)cc2c1Nc1ccc(N(CC)CC)cc1 -28.1%, Cc1ccc(NCc2nc3ccccc3n2CCOc2ccccc2C)cc1 9.26%, Cc1cc(Nc2cccc(F)c2)n2nc(-c3ccco3)nc2n1 7.61%, O=C(NCCc1ccccc1)c1ccc2c(c1)CCN2S(=O)(=O)c1ccccc1 -3.44%, Cc1cc(C)c2c(CC(=O)N(Cc3ccc(Cl)cc3)Cc3ccco3)coc2c1 -3.99%, Cc1ccc(NC(=O)Cn2nc(Cc3ccncc3)c3ccccc3c2=O)c(Cl)c1 -1.39%, Cc1cc(Nc2cccc(C(F)(F)F)c2)nc2ccc(NC(=O)c3cccc(Cl)c3)cc12 -4.6%, Cn1nnnc1SCCNCc1cc(Br)ccc1OCc1ccccc1Cl -9.06%, CC(C)(C)c1ccc(OCC(=O)NCC2(N3CCOCC3)CCCCC2)cc1 -8.96%, CCc1ccc(NC(=O)CSc2nc(-c3cccc(OC)c3)nc3c2Cc2c(CO)cnc(C)c2O3)cc1 -11.1%, CCCCN(CC)C(=O)c1nn(-c2ccc(OC)cc2)c(=O)c2c1c1ccccc1n2C -2.89%, COc1ccc(OC)c(CNC(=O)c2nn(C)c3c2CS(=O)(=O)c2ccccc2-3)c1 3.75%, Cc1ccc(C)c(CSc2cn(CCNC(=O)c3cccs3)c3ccccc23)c1 8.5%, CCCn1cc(S(=O)(=O)c2ccccc2)c(=O)c2cc(F)c(N3CCCCCC3)cc21 -13.5%, CCOc1ccc(-n2c(C)nc3cc(C(=O)NCc4ccc(C)cc4)ccc32)cc1 -14.6%, COc1ccccc1Nc1c2c(nc3ccc(NC(=O)c4ccc(OC)c(OC)c4)cc13)CCCC2 -12.8%, CCOc1ccccc1C(=O)Oc1c(S(=O)(=O)c2ccc(C)cc2)c(C)nn1-c1ccccc1 -21.8%, CCCCn1cc(S(=O)(=O)c2ccccc2)c(=O)c2cc(F)c(N3CCN(CCC)CC3)cc21 -8.83%, COc1ccc(C(CNC(=O)COc2cc(C)cc(C)c2)N2CCCCC2)cc1 (centres undefined) 1.26%, COc1ccc(-c2noc(CSc3nnc(-c4ccccc4)n3-c3ccc(F)cc3)n2)c(OC)c1 -12.2%, CCCn1c(SCc2nc(-c3cc(OC)ccc3OC)no2)nnc1-c1ccc(Cl)cc1 -13.3%, CCc1ccc(CN(Cc2ccco2)C(=O)c2ccc(OC)cc2)cc1 -19.1%, CCCn1c(SCc2nc(-c3ccc(OC)cc3OC)no2)nnc1-c1ccc(Cl)cc1 -22.8%, O=S(=O)(NCCc1nnc2ccc(SCc3ccc(Cl)cc3Cl)nn12)c1ccccc1 -20.5%, Cc1ccc(C)c(Nc2nn3c(=O)c4ccc(C(=O)NCc5cccs5)cc4nc3s2)c1 -12.7%, CCCN(CCC)CCCNC(=O)c1cn(CC)c2ccc(S(=O)(=O)N3CCc4ccccc4C3)cc2c1=O -24.5%, O=C(Cc1ccccc1F)N1CCC(c2nc3c(nnn3Cc3cccc(Cl)c3)c(=O)[nH]2)CC1 -11.7%, COc1ccc(-n2cc(-c3ccccc3)c3c(NCCc4ccc(OC)c(OC)c4)ncnc32)cc1 -4.44%, CCOc1ccc(-c2noc(CSc3nnc(Cc4ccccc4)n3-c3cccc(C)c3)n2)cc1 -14.8%, CCc1ccc(Nc2nc(N)nc(CSc3nc4ccccc4s3)n2)cc1 -10.8%, O=C(NCCC1=CCCCC1)c1ccc2c(c1)ncn2-c1ccc(F)c(F)c1 -12.5%, Cc1ccc(N(Cc2cccs2)C(=O)c2ccc(Br)o2)cc1 -11%, CSc1ccc2c(c1)C(N1CCN(C)CC1)Cc1ccccc1S2 (centres undefined) -12.8%, Cc1cccc(N2CCN(C(=O)C3CCN(c4ncnc5c4nc4n5CCCCC4)CC3)CC2)c1C -17.9%, Cc1cccc(Cn2c(=O)n3nc(-c4ccccc4)nc3c3ccccc32)c1 -4.38%, COc1cc2c(cc1OC)C(COc1ccc(C(C)C)cc1)N(C(=O)COc1ccccc1)CC2 (centres undefined) 2.86%, Cc1ccccc1OCC(=O)N(Cc1ccc(C(C)C)cc1)C1CCS(=O)(=O)C1 (centres undefined) -6.16%, CCc1ccc(NC(=O)CSc2nc(=O)n(Cc3ccco3)c3c2CCC3)cc1 -16.1%, CCOC(=O)c1c(C)oc2nc(C)nc(NC(C)c3ccccc3)c12 (centres undefined) 8.51%, Cn1c(SCc2ccc(F)cc2)nc2ccc(C(=O)NCc3ccc(F)cc3)cc21 -11.1%, CCOc1ccccc1NC(=O)CSc1nccn1-c1ccc(Cl)cc1 -6.02%, CCOc1ccc(CNC(=O)c2c(C)nn(-c3ccc(F)cc3)c2-n2cccc2)cc1 -6.04%, COc1ccc(C(=O)c2cn(Cc3ccc(F)cc3)c3ccc(C)cc3c2=O)cc1 -22.6%, Cc1ccc(-c2nc3ccccn3c2Nc2ccc3c(c2)OCO3)cc1 -7.46%, N#C/C(=C\c1ccc(-c2cc(Cl)ccc2Cl)o1)C(=O)Nc1cccc2ncccc12 -28.6%, Cc1cccc(CN2C(=O)c3ccccc3S(=O)(=O)c3ccc(C(=O)NCCC4=CCCCC4)cc32)c1 -6.03%, COc1ccc(Cl)cc1NC(=O)c1c(NCc2ccc(C)o2)sc2c1CCCCC2 27.8%, Cc1ccc(Nc2c(-c3cccs3)nc3nc(C)cc(C)n23)cc1 -6.24%, CCC(C(=O)Nc1cc(Cl)ccc1OC)n1nc(-c2ccccc2)ccc1=O (centres undefined) -8.36%, COc1ccc(C(=O)NCC(c2cccnc2)N2CCc3ccccc32)cc1 (centres undefined) 1.56%, CN(Cc1ccccc1)C(=O)c1ccc(CSc2nc3cccnc3n2Cc2ccccc2)cc1 -23.7%, Cc1ccc2c(c1)-c1c(cnn1CC(=O)N1CCN(c3cccc(C(F)(F)F)c3)CC1)CO2 -13.5%, Cc1ccc(C)c(N2CCN(CCCNc3ncnc4onc(-c5ccc(Cl)cc5)c34)CC2)c1 -2.73%, Cc1cccc(-n2ncc(C(=O)NCc3ccc4c(c3)OCO4)c2C2CCN(C(=O)OC(C)(C)C)CC2)c1 -11%
